# Results published in article PMC6919601, “Identification of Plasmodium dipeptidyl aminopeptidase allosteric inhibitors by high throughput screening” (PLoS ONE, 2019).
# Hit rate of the full screen: of about 110,000 compounds, about 230 (0.21%) showed an effect of 50% or more. The list shows a part of the results.
# Molecular target: DPAP1 (Plasmodium falciparum, UniProt Q8IIJ9)
# Experiment: primary screen, percent inhibition; read by cleavage of a fluorogenic dipeptide substrate; higher = more effect of the substance
# Design: species or system P. falciparum D10 trophozoite lysates; single well
# 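Also: 30 min substrate incubation versus DMSO and 10 µM JCP410 controls.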
# Chain of DPAP1 (Q8IIJ9 whole entry, looked up): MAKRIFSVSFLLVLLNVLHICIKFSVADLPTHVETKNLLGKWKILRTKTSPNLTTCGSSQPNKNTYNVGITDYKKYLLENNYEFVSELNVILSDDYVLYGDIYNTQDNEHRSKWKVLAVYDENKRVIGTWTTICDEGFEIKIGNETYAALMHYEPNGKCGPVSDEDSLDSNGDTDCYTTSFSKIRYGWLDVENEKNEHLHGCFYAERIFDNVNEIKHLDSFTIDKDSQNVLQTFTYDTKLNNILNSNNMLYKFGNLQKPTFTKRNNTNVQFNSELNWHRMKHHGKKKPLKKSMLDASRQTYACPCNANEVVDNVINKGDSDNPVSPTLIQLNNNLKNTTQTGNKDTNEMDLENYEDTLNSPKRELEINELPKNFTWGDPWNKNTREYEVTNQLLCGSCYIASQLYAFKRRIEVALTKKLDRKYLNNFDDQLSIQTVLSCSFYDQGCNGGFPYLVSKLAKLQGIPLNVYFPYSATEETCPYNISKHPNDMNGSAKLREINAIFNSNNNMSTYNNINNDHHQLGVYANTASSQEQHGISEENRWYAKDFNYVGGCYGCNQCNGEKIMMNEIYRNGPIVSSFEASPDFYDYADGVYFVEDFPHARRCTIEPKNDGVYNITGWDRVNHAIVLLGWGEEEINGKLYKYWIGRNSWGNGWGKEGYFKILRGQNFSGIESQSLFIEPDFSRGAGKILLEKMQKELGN
row,SMILES,% Inhibition @ 10 uM [%]
1,Clc1cccc2c(N3CCCCCC3)cnnc12,-6.95
2,CCCCOc1ccc(C(=O)NC2=NC(=O)CC(c3cc(OC)ccc3OC)N2)cc1 (centres unmarked),-0.485
3,CC(C)c1ccc(NC(=O)/C=C\C(=O)O)cc1,-1.77
4,Cc1c(C(=O)N2CCC3(CC2)OCCO3)sc2nc3n(c(=O)c12)CCCCC3,-9.37
5,Cn1cccc1/C=C1\SC(=O)N(CC(=O)Nc2ccc(Br)cc2)C1=O,-1.98
6,N#Cc1ccccc1NC(=O)Cc1cccc2ccccc12,-6.59
7,O=C(NCc1ccccc1)c1cccc(S(=O)(=O)NCc2ccccc2)c1,-3.52
8,Cc1ccc(CSCC(=O)NCCc2ccc(Cl)cc2)cc1,-2.99
9,CCCNC(=O)Cn1ncc2c3ccccc3n(Cc3ccccc3)c2c1=O,3.4
10,CCC(C)c1ccccc1OCC(=O)Nc1ccc(S(=O)(=O)N2CCCCC2)cc1 (centres unmarked),-1.44
11,COc1ccc(F)cc1S(=O)(=O)NC1CC(C)(C)NC(C)(C)C1,-1.33
12,CCOC(=O)N1CC=C(c2c(C)[nH]c3ccccc23)CC1,-6.92
13,COc1cccc(S(=O)(=O)Nc2ccc(C(=O)N3CCOCC3)cc2)c1,-6.64
14,COc1ccc(N(CC(=O)Nc2cc(C)ccc2C)S(C)(=O)=O)cc1Cl,-3.78
15,CN1C(=O)c2ccccc2C(C(=O)N2CCN(Cc3ccccc3)CC2)C1c1cn(C)c2ccccc12 (centres unmarked),43.8
16,CCCOc1ccc(C(=O)N(Cc2cccc(F)c2)Cc2ccco2)cc1,2.29
17,CCc1ccc(NC(=O)C2CCN(C(=O)c3ccc(Cl)cc3)CC2)cc1,-5.21
18,Cc1ccc(-n2nc3c(N4CCCC(C(=O)N5CCCCC5)C4)nnc(C)c3c2C)cc1 (centres unmarked),-1.05
19,Cc1cccn2c(=O)c(/C=C(\C#N)C(=O)NCC3CCCO3)c(Oc3ccc(Cl)cc3)nc12 (centres unmarked),-5.1
20,Cc1ccc(CNC(=O)c2ccc(CS(=O)(=O)c3cccc(C(F)(F)F)c3)o2)cc1,2.14
21,Cc1ccsc1C1C(C#N)=C(N)OC2=C1C(=O)CC(C)C2 (centres unmarked),-1.38

row,SMILES,% Inhibition @ 10 uM [%]
1,Cc1nc(SCC(=O)Nc2ccc(Cl)cn2)[nH]c1CC(C)C,0.895
2,O=C(Nc1cc(Cl)c([N+](=O)[O-])cc1Cl)c1cc2ccccc2cc1O,1.41
3,Cc1cccc(CNS(=O)(=O)c2ccc(-c3cc(C(F)(F)F)no3)s2)c1,1.73
4,CCCCCOc1ccc(NC(=O)/C=C/C(=O)O)cc1,0.989
5,Cc1ccc(-n2nnc3c(=O)n(CC(=O)NCc4ccccc4)cnc32)cc1,-5.79
6,CC(C)C[C@@H](C(=O)NCC#N)c1cccc(-c2ccc([SH+](O)(O)N(C)CCN(C)C)cc2)c1,-3.25
7,CCc1[nH]nc2c1C(c1cccc(OCC(N)=O)c1)C(C#N)=C(N)O2 (centres unmarked),1.57
8,CCCCOc1ccc(CNCCCN(CC)CC)cc1OCC,-3.35
9,Cc1ccccc1Cn1cnc2c(nnn2Cc2ccc(F)cc2)c1=O,4.22
10,COc1cc(C(=O)NC(C)(C)C)cc(OC)c1OC,0.755
11,CC(=O)N1c2ccccc2N=C2CC(C)(C)CC(O)=C2C1c1ccccc1Cl (centres unmarked),-5.62
12,CCNC(=O)CN(c1ccc(C(C)C)cc1)S(C)(=O)=O,0.793
13,Cc1ccccc1C(=O)NCCSc1c(C)[nH]c2ccccc12,-3.27
14,COC(=O)C1=C(C)N(CC(C)C)C(=O)/C1=C\c1cccc(OC)c1OC,3.43
15,O=C(Nc1ccc(S(=O)(=O)Nc2ccc(F)cc2)cc1)C1CC1,-0.473
16,O=C(Nc1ccc(F)c(F)c1)c1sc2ccccc2c1Cl,1.27
17,CN(C(=O)Cn1c(SCc2ccc(F)cc2)nc2ccncc21)C1CCCCC1,-7.93
18,Cn1ncc2c(=O)n(CC(=O)c3ccccc3)cnc21,2.33
19,CC(C)(C)c1ccc(S(=O)(=O)Nc2ccc(O)c(C(=O)O)c2)cc1,2.36
20,CCc1ccc2nc(N(CCCN(C)C)C(=O)c3ccco3)sc2c1,11.7
21,CC(C)COc1cccc(C(=O)Nc2ccc(CN3CCOCC3)cc2)c1,5.63

row,SMILES,% Inhibition @ 10 uM [%]
1,COCCN1C(=O)c2cc(C(=O)O)ccc2C1O (centres unmarked),2.39
2,CC(=O)Nc1ccc(S(=O)(=O)N2CCC(C)CC2)cc1,0.343
3,Cc1cccc(COc2cccc(C3(C)NC(=O)NC3=O)c2)c1 (centres unmarked),-5.49
4,CCOC(=O)C1=C(C(F)(F)F)Nc2ncnn2C1c1ccc(OC)c(OC)c1OC (centres unmarked),3.32
5,CCOC(=O)c1c(-c2cccnc2)csc1N,-2.18
6,CCc1ccc(CNC(=O)C2CCN(c3nn4cc(-c5ccc(C)cc5)nc4s3)CC2)cc1,-1.41
7,CCC(C)NC(=O)c1ccccc1NS(=O)(=O)c1ccc(Br)s1 (centres unmarked),-1.27
8,Cc1ccc(-c2cn3cc(Cl)ccc3n2)cc1,-1.25
9,CC1(C)CC(=O)C2=C(C1)N(c1ccc(O)cc1)C(=O)CC2c1ccccc1 (centres unmarked),-4.98
10,O=C(Nc1nc(C2COc3ccccc3O2)cs1)c1cccc(Br)c1 (centres unmarked),-1.71
11,COc1ccc(Cl)cc1-c1ccc(/C=C(\C#N)c2nn(CCO)c(N)c2C#N)o1,3.34
12,O=c1c2c([nH]c(=S)n1CC1CCCCC1)-c1ccccc1CC21CCCCC1,4.57
13,COc1cc(OC)cc(C(=O)Nc2nc(-c3nnn(-c4ccc(F)cc4C)c3C)ns2)c1,-3.02
14,Cc1ccc2c(CNCC3CCCO3)c(C(=O)O)n(Cc3ccc(F)cc3)c2c1 (centres unmarked),3.9
15,CN(Cc1ccccc1)S(=O)(=O)c1ccc(NC(=O)c2ccccc2Cl)cc1,1.29
16,O=C(O)C1CCCCC1C(=O)Nc1ccccn1 (centres unmarked),0.64
17,CC(C)NC(=O)c1cc(Cl)ccc1NC(=O)c1ccco1,-4.59
18,CCc1ccc(NC(=O)/C=C/c2cccc([N+](=O)[O-])c2)cc1,1.29
19,COc1ccc(N2C(=O)CC(N3CCN(c4cccc(Cl)c4)CC3)C2=O)cc1 (centres unmarked),-3.72
20,COc1c(Br)cc2c(C)c(C(=O)N3CCOCC3)oc2c1Br,-3.58
